# The full ranking holds about 33,000 sequences; the median of “E-score (-0.5 to 0.5)” is about -0.054, and the highest 2% start at about 0.39. The list shows a part of the results.
# Target: Ylr278c (UniProt Q05854)
# Assay: PBM E-score (8-mer binding enrichment) (E-score (-0.5 to 0.5)); higher = stronger / more preferred TF binding; most listed sequences are background and not binding sites
# Settings: protein concentration: 200 nM; construct: GST-DNA-binding domain
# Summary of the method: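 Bound GST-tagged yeast transcription factors, applied at about 100-200 nM to double-stranded universal all-10-mer Agilent arrays, were detected with fluorescent anti-GST. Scans were normalised with masliner. A modified Wilcoxon-Mann-Whitney statistic, the E-score, was assigned to each ungapped eight-base word pooled with its reverse complement by the Universal PBM Analysis Suite.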
row,Sequence,PBM E-score
1,ACACGATA,0.136
2,TGGTCCAA,0.0431
3,CTAGGGAG,-0.191
4,ACCTTAGC,0.0208
5,CCGTAAGA,0.0926
6,CTAGAACA,0.17
7,AACCCCGA,0.431
8,TGAGCGAA,0.0115
9,GGGCCCCC,-0.0037
10,AGCGTACG,-0.0674
11,AGGGTCAT,-0.242
12,AACGTCGT,-0.0374
13,GTGTAGTA,0.0761
14,CTGGCTGA,-0.0217
15,AGTCGCAA,-0.0612
16,ATTAATAG,0.0023
17,CCCACCAA,-0.022
18,AAGGCCCT,-0.13
19,CTCAAAGC,0.00491
20,AGTTGGAA,-0.0605
21,AATCGGTA,0.0849
22,TCACCTAA,-0.0532
23,CATTCGCA,-0.149
24,GAATGTGA,-0.0742
25,GAGAGCTC,-0.064

row,Sequence,PBM E-score
1,AGATCCAG,-0.11
2,ATCAGTTC,-0.109
3,AATCGCGT,0.0126
4,CTCCACTA,-0.189
5,GAACTGGC,0.121
6,CCGAATCG,0.291
7,AGACCACA,-0.235
8,AGAAGAGC,-0.102
9,ACTACGCG,0.0549
10,AAACGTCG,0.017
11,AATTATGT,-0.116
12,CCGTGAGC,0.236
13,ACCGTTCC,0.25
14,AGAGACGA,-0.0695
15,GCAGTGGC,-0.00146
16,CACCAGTA,-0.139
17,ATAGGGGC,0.0273
18,AAACTGGA,-0.14
19,CATTACAA,-0.076
20,TCAACCGA,0.0559
21,CAGTATGG,-0.195
22,CGATCGTC,0.13
23,CCACAGTC,-0.349
24,CAGCGTAA,-0.135
25,AAACATAT,0.159

row,Sequence,PBM E-score
1,AAGTGCCA,-0.179
2,GTTGTGGA,-0.0425
3,CGAAAAAC,0.0937
4,GGATGCAA,-0.0219
5,CCCGTCCC,-0.0309
6,CGAGCATA,-0.0583
7,GTAACTGA,-0.292
8,CAAGGCTC,-0.299
9,AAGACACT,-0.0702
10,AGGTCTGG,-0.13
11,ATATACCC,0.0752
12,CGCGAGCG,0.13
13,ATGAGAAT,0.0243
14,CTATACAG,-0.275
15,CGCACGAG,-0.0923
16,AGTTCTTA,-0.0305
17,CACGTCTA,-0.373
18,GGTTATAC,-0.162
19,CGGTGCGC,0.279
20,CACTGCTC,-0.0401
21,GCACCCTA,-0.266
22,AATCCGTA,0.195
23,AATCTTTC,0.128
24,GTATGAAC,0.0609
25,AATCACTG,-0.0988

row,Sequence,PBM E-score
1,ACACTCGG,0.17
2,GCTGGGAC,-0.127
3,ATACACTG,-0.245
4,GACATACC,0.00952
5,AGAAAGCT,-0.0493
6,CCGCTAGA,-0.0195
7,GGGACTGA,-0.136
8,CTGGATGA,-0.195
9,AGAAGGTG,-0.0485
10,AGTAGGAG,-0.1
11,GGGGTAAA,0.164
12,AACAGTCC,-0.104
13,AGATCGCA,-0.0241
14,AGGAAGCG,0.0602
15,ACGGACCT,0.288
16,GGCGGGCA,0.243
17,AGGCATCA,-0.289
18,CGAAGAGA,-0.00422
19,ACGCCCAG,-0.16
20,CCGCACCC,0.266
21,CGCCGACC,0.296
22,TCAGATAA,-0.117
23,CGCCAGCA,-0.108
24,TATATGCA,-0.245
25,GTAGTAGA,-0.138

row,Sequence,PBM E-score
1,CAACAACA,-0.183
2,CAGTGGAC,-0.146
3,CGGAGCAG,0.417
4,ATGCCTCA,0.00596
5,GCTGGCGA,-0.0626
6,AGTACGAA,0.0415
7,TAGTCGAA,-0.13
8,CGGCGAGA,0.202
9,ATGCCACC,-0.208
10,CTACATAC,-0.0842
11,ATTATAGC,-0.086
12,CCTGCATC,-0.183
13,AATGCCAG,-0.0332
14,ACGATACT,0.0467
15,ATGCGTAG,-0.0723
16,GATTTAAC,0.154
17,CTACGGCA,0.00652
18,GTCGTTCA,-0.245
19,CCGGCCAA,0.315
20,GGTTTCTA,0.0335
21,CTGTGTTA,0.0025
22,ATTATCCA,-0.155
23,ATTAATCG,0.218
24,GGCTCTGA,-0.357
25,ATCACTTA,-0.2

row,Sequence,PBM E-score
1,GTGGGGCA,-0.062
2,CTGTAGGC,-0.184
3,TCTCATCA,-0.183
4,CACGTTAC,-0.274
5,CTTACTTA,-0.0395
6,CTACACTA,-0.317
7,GGTGTAAA,0.0406
8,ATAGTTAC,-0.0396
9,ACAGGTCG,-0.14
10,AACCAACC,-0.111
11,AATTGTGG,-0.166
12,ATGTCGTG,-0.292
13,AGTTATAA,-0.195
14,CTAATTCA,-0.226
15,CGCATGTA,-0.0916
16,CGTACAAG,-0.214
17,AAGCTCGA,-0.043
18,ACTGTTAC,-0.171
19,CAGTGAAA,0.0583
20,ATGTCTGA,-0.181
21,CATATTAA,-0.119
22,ACAGCCGG,0.322
23,ACCAAGCA,-0.132
24,AGTTATGC,0.0232
25,ACCGCCTA,0.00883

row,Sequence,PBM E-score
1,ACAGCACC,0.0761
2,CCATTTTC,0.0765
3,GGTTTGGA,-0.029
4,GTGAGGGA,-0.204
5,TAAGCACA,0.0569
6,AATTCTGA,-0.119
7,GTCCTCAA,-0.0761
8,CGGGTCCC,0.0308
9,CAACGTCG,-0.147
10,GACGCGGA,0.291
11,ATGTGCTC,-0.0292
12,ATCCCATG,-0.121
13,ATACACTC,0.0208
14,CTCAAGGC,-0.0516
15,ATCCAGCA,-0.288
16,CCGCATAC,0.224
17,GGTCAGCA,-0.0137
18,GCGTATAC,-0.00732
19,AGGAGAAC,-0.00067
20,CGTTGTAC,-0.0956
21,ATGGAGTA,0.0152
22,GGCAGAAA,0.155
